Assay results reported in the antibiotic and cytotoxicity screens of Wong et al. (2023).
Some of the results follow.

System: S. aureus RN4220
Assay: growth inhibition call (relative growth <= 0.2)
Details: 50 µM

Growth inhibition call, inactive:
Cc1noc(C)c1NC(=O)Nc1cccc2c1O[C@@H](CN(C)Cc1ccc(C(F)(F)F)cc1)[C@H](C)CN([C@@H](C)CO)C2=O, CCOC(=O)CCn1cc(F)c(=O)[nH]c1=O, C[C@@H]1CN([C@H](C)CO)C(=O)c2cc(NC(=O)Nc3cccc4ccccc34)ccc2O[C@@H](C)CCCCO[C@@H]1CN(C)C(=O)c1ccccc1, Cn1cnc(S(=O)(=O)N[C@H]2C=C[C@@H](CC(=O)NCC3CC3)O[C@H]2CO)c1, COc1ccc(S(=O)(=O)N(C)C[C@H]2Oc3ccc(NS(=O)(=O)c4cccs4)cc3CC(=O)N([C@@H](C)CO)C[C@@H]2C)cc1, O=C(N/N=C/[C@H](O)[C@@H](O)[C@H](O)[C@H](O)CO)c1ccccc1O, Cc1ccccc1NC(=O)CC(C)C, CO[C@@H]1CN(C)C(=O)c2cc(NS(=O)(=O)c3ccccc3)ccc2OC[C@H](C)N(C(=O)NC(C)C)C[C@@H]1C, O=C(C[C@H]1CC[C@@H](NC(=O)CN2CCOCC2)[C@H](CO)O1)NCc1cccc(F)c1, Nc1nc(N)nc(-c2ccccc2)n1, NNC(=O)C1[C@H]2CCCC[C@@H]12 (stereo partly specified), CO[C@H](CN(C)C(=O)c1ccc2c(c1)OCO2)[C@H](C)CN([C@@H](C)CO)S(=O)(=O)c1ccc(Cl)cc1, Cc1noc(C)c1S(=O)(=O)Nc1ccc2c(c1)C(=O)N([C@H](C)CO)C[C@H](C)[C@H](CN(C)S(=O)(=O)c1c(C)noc1C)O2, COc1ccc(C#Cc2ccc3c(c2)O[C@@H](CN(C)C(C)=O)[C@H](C)CN([C@H](C)CO)S3(=O)=O)cc1, C[C@H]1CCCCO[C@H](CN(C)CC2CCCCC2)[C@@H](C)CN([C@@H](C)CO)C(=O)c2cc(NC(=O)CCC(F)(F)F)ccc2O1, C[C@H]1CN([C@@H](C)CO)C(=O)Cc2cc(NC(=O)Nc3ccccc3)ccc2O[C@@H]1CN(C)Cc1ccc(Cl)c(Cl)c1, C[C@@H]1CCCCO[C@@H](CN(C)C(=O)C2CCCCC2)[C@@H](C)CN([C@@H](C)CO)C(=O)c2cc(NC(=O)C3CCCCC3)ccc2O1, COc1ccc2c3c([nH]c2c1)[C@@H](CO)N(Cc1ccc(cc1)Cl)C[C@]13CCN(CC1)Cc1ccccc1, C[C@@H]1CN([C@H](C)CO)C(=O)Cc2cc(NC(=O)Nc3ccc(F)cc3)ccc2O[C@@H]1CN(C)Cc1ccc(-c2ccccc2)cc1, C[C@H](CO)N1C[C@H](C)[C@H](CN(C)C(=O)Cc2ccccc2)OCCCC[C@H](C)Oc2ccc(NC(=O)Nc3ccccc3)cc2C1=O, C[C@H](CO)N1C[C@H](C)[C@H](CN(C)Cc2ccc(C(F)(F)F)cc2)Oc2ccc(NC(=O)Cn3cnnn3)cc2C1=O, C[C@@H]1CN([C@@H](C)CO)C(=O)c2cccc(NC(=O)C3CCOCC3)c2O[C@@H]1CN(C)Cc1ccc(Oc2ccccc2)cc1, COC(=O)[C@@H](N)CS[C@H]1CCCCO1, C[C@@H]1CN([C@H](C)CO)C(=O)c2c(c3ccccc3n2C)-c2ccccc2CO[C@H]1CN(C)C(=O)Nc1ccc(-c2ccccc2)cc1, C[C@@H]1CCCCO[C@@H](CN(C)C(=O)NC2CCCCC2)[C@@H](C)CN([C@@H](C)CO)C(=O)c2cc(NS(=O)(=O)c3ccc(Cl)cc3)ccc2O1, CCCNC(=O)N(C)C[C@H]1Oc2ncc(-c3ccc(C(=O)N(C)C)cc3)cc2C(=O)N([C@H](C)CO)C[C@@H]1C, CCCC(=O)Nc1ccc2c(c1)C(=O)N(C)C[C@@H](OC)[C@@H](C)CN(Cc1ccc(-c3ccccn3)cc1)[C@H](C)CO2, Cc1noc(C)c1S(=O)(=O)Nc1cccc2c1O[C@@H](CN(C)Cc1ccc(-c3ccccc3)cc1)[C@@H](C)CN([C@@H](C)CO)C2=O, C[C@@H]1CCCCO[C@@H](CN(C)C(=O)CCC(F)(F)F)[C@H](C)CN([C@@H](C)CO)C(=O)c2cc(NC(=O)c3ccccc3)ccc2O1, C[C@H](CO)N1C[C@H](C)[C@@H](CN(C)CC2CCOCC2)Oc2cc(-c3cccnc3)ccc2S1(=O)=O, CNC[C@@H]1Oc2ccc(NC(=O)Cn3cnnn3)cc2CC(=O)N([C@@H](C)CO)C[C@@H]1C
